In the supplement of paper PMC4967469:

Key:
Assay in all cases: Viability of human cancer cell lines after 72 h of drug (GDSC screen)
SNX-2112 = compound: CC1(C)CC(=O)c2c(C(F)(F)F)nn(-c3ccc(C(N)=O)c(N[C@H]4CC[C@H](O)CC4)c3)c2C1 [SNX-2112]; conditions: top dose 2.56 µM
Procedure: (§1)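 Human cancer cell lines in 384-well plates, medium with 10% serum, drug for 72 h over a 256-fold dose range (nine 2-fold or five 4-fold steps up to the top dose). Adherent lines were fixed and stained with the nucleic acid dye Syto60, suspension lines read with resazurin; signal relative to control wells, capped at 0 and 100%. One two-parameter sigmoid per drug and line, fitted in a mixed model over all curves with the slope shared within a line.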

Vinblastine = compound: CC[C@]1(O)C[C@@H]2CN(CCc3c([nH]c4ccccc34)[C@@](C(=O)OC)(c3cc4c(cc3OC)N(C)[C@H]3[C@@](O)(C(=O)OC)[C@H](OC(C)=O)[C@]5(CC)C=CCN6CC[C@]43[C@@H]65)C2)C1 [Vinblastine]; conditions: top dose 0.1 µM; top dose inferred
Procedure: as §1

Afatinib = compound: CN(C)C/C=C/C(=O)Nc1cc2c(Nc3ccc(F)c(Cl)c3)ncnc2cc1O[C@H]1CCOC1 [Afatinib]
Procedure: as §1

PF-562271 = compound: CN(c1ncccc1CNc1nc(Nc2ccc3c(c2)CC(=O)N3)ncc1C(F)(F)F)S(C)(=O)=O [PF-562271]; conditions: top dose 2.56 µM; top dose inferred
Procedure: as §1

XMD13-2 = compound: O=C(NC1CC1)c1cccc(-c2ccc3c(NC(=O)C4CC4)n[nH]c3c2)c1 [XMD13-2]; conditions: top dose 10.24 µM; top dose inferred
Procedure: as §1

[1] = top dose 0.5 µM, screen: GDSC drug entry 1032
[2] = top dose 10 µM, screen: GDSC drug entry 1377, top dose inferred

Cell Line | AUC (SNX-2112) | IC50 (SNX-2112) [nM] | AUC (Vinblastine) | IC50 (Vinblastine) [nM] | AUC (Afatinib; [1]) | IC50 (Afatinib; [1]) [nM] | AUC (Afatinib; [2]) | IC50 (Afatinib; [2]) [nM] | AUC (PF-562271) | IC50 (PF-562271) [nM] | AUC (XMD13-2) | IC50 (XMD13-2) [nM]
Mo-T (hairy cell leukaemia, suspension) | 0.257 | 31.7 | 0.362 | 2.58 | 0.987 | > 500 | 0.948 | > 10000 | 0.986 | > 2560 | 0.885 | > 10200
NALM-6 (B-cell leukaemia, suspension) | 0.171 | 20.4 | 0.369 | 2.9 | 0.99 | > 500 | 0.968 | > 10000 | 0.853 | 1510 | 0.815 | 4510
NAMALWA (Burkitt lymphoma, suspension) | 0.194 | 24.2 | 0.49 | 5.91 | 0.991 | > 500 | 0.988 | > 10000 | 0.963 | > 2560 | 0.874 | 7320
NB5 (neuroblastoma, adherent) | 0.885 | > 2560 | 0.644 |  | 0.851 | 391 | 0.858 | 8420 | 0.965 | > 2560 | 0.958 | > 10200
NB6 (neuroblastoma, adherent) | 0.858 | > 2560 | 0.785 | 53.6 | 0.983 | > 500 |  |  | 0.977 | > 2560 | 0.867 | > 10200
NB10 (neuroblastoma, adherent) | 0.59 | 281 | 0.54 | 8.03 | 0.976 | > 500 | 0.959 | > 10000 | 0.967 | > 2560 | 0.92 | > 10200
NB12 (neuroblastoma, adherent) | 0.836 | > 2560 | 0.748 | 42.2 | 0.972 | > 500 | 0.466 | 489 | 0.966 | > 2560 | 0.942 | > 10200
NB13 (neuroblastoma, adherent) | 0.299 | 47 | 0.418 | 3.83 | 0.99 | > 500 | 0.99 | > 10000 | 0.958 | > 2560 | 0.901 | > 10200
NB14 (neuroblastoma, adherent) | 0.497 | 158 | 0.508 | 6.56 | 0.989 | > 500 | 0.975 | > 10000 | 0.89 | > 2560 | 0.959 | > 10200
NB69 (neuroblastoma, adherent) | 0.639 | 370 | 0.508 | 6.55 | 0.873 | 389 |  |  | 0.861 | 1780 | 0.909 | > 10200
NB(TU)1-10 (neuroblastoma, adherent) | 0.405 | 91.1 | 0.962 | > 100 | 0.993 | > 500 | 0.993 | > 10000 | 0.897 | 2430 | 0.992 | > 10200
NB-4 (acute myeloid leukaemia, suspension) | 0.132 | 15.5 | 0.212 | 1.1 | 0.991 | > 500 | 0.978 | > 10000 | 0.841 | 1330 | 0.538 | 795
NCI-H28 (mesothelioma, adherent) | 0.924 | > 2560 | 0.661 | 20.3 | 0.903 | > 500 | 0.819 | 8140 | 0.902 | > 2560 | 0.968 | > 10200
NCI-H64 (small cell lung carcinoma, suspension) | 0.322 | 59 | 0.859 | 51.1 | 0.996 | > 500 |  |  | 0.975 | > 2560 | 0.827 | 4220
NCI-H69 (small cell lung carcinoma, suspension) | 0.981 | > 2560 | 0.685 | 21.9 | 0.984 | > 500 | 0.952 | > 10000 | 0.92 | > 2560 | 0.846 | 8780
NCI-H82 (small cell lung carcinoma, suspension) | 0.852 | 1810 | 0.423 | 3.91 | 0.982 | > 500 | 0.987 | > 10000 | 0.938 | > 2560 | 0.944 | > 10200
NCI-H187 (small cell lung carcinoma, suspension) | 0.659 | 460 | 0.804 | 55.2 | 0.988 | > 500 | 0.985 | > 10000 | 0.976 | > 2560 | 0.932 | > 10200
NCI-H209 (small cell lung carcinoma, suspension) | 0.861 | 2420 | 0.601 | 12.1 | 0.986 | > 500 | 0.928 | > 10000 | 0.97 | > 2560 | 0.823 | 6630
NCI-H211 (small cell lung carcinoma, adherent) | 0.298 | 44 | 0.469 | 5.14 | 0.98 | > 500 | 0.966 | > 10000 | 0.901 | > 2560 | 0.789 | 4380
NCI-H322M (lung adenocarcinoma, suspension) | 0.883 | > 2560 | 0.902 | > 100 | 0.926 | > 500 | 0.938 | > 10000 | 0.975 | > 2560 | 0.987 | > 10200
NCI-H345 (small cell lung carcinoma, suspension) | 0.989 | > 2560 | 0.92 | > 100 | 0.988 | > 500 | 0.985 | > 10000 | 0.99 | > 2560 | 0.99 | > 10200

Cell Line | AUC (SNX-2112) | IC50 (SNX-2112) [nM] | AUC (Vinblastine) | IC50 (Vinblastine) [nM] | AUC (Afatinib; [1]) | IC50 (Afatinib; [1]) [nM] | AUC (Afatinib; [2]) | IC50 (Afatinib; [2]) [nM] | AUC (PF-562271) | IC50 (PF-562271) [nM] | AUC (XMD13-2) | IC50 (XMD13-2) [nM]
NCI-H441 (lung adenocarcinoma, adherent) | 0.944 | > 2560 | 0.855 | > 100 | 0.94 | > 500 | 0.864 | > 10000 | 0.94 | > 2560 | 0.967 | > 10200
NCI-H446 (small cell lung carcinoma, semi-adherent) | 0.436 | 106 | 0.419 | 3.68 | 0.985 | > 500 | 0.908 | > 10000 | 0.969 | > 2560 | 0.673 | 2030
NCI-H520 (lung squamous cell carcinoma, adherent) | 0.493 | 153 | 0.727 | 28.3 | 0.978 | > 500 | 0.985 | > 10000 | 0.971 | > 2560 | 0.812 | 5690
NCI-H524 (small cell lung carcinoma, suspension) | 0.99 | > 2560 | 0.495 | 6.08 | 0.99 | > 500 | 0.99 | > 10000 | 0.978 | > 2560 | 0.795 | 4180
NCI-H526 (small cell lung carcinoma, suspension) | 0.765 | 899 | 0.546 | 8.28 | 0.973 | > 500 | 0.989 | > 10000 | 0.911 | > 2560 | 0.906 | > 10200
NCI-H596 (lung adenocarcinoma, adherent) | 0.689 | 638 | 0.85 | > 100 | 0.941 | > 500 | 0.941 | > 10000 | 0.949 | > 2560 | 0.91 | > 10200
NCI-H630 (large intestine, adherent) | 0.785 | 1180 | 0.926 | > 100 | 0.909 | > 500 | 0.913 | > 10000 | 0.948 | > 2560 | 0.974 | > 10200
NCI-H647 (non-small cell lung carcinoma, adherent) | 0.455 | 120 | 0.618 | 13.4 | 0.982 | > 500 | 0.973 | > 10000 | 0.919 | > 2560 | 0.809 | 5660
NCI-H650 (lung adenocarcinoma, adherent) | 0.384 | 74.2 | 0.653 | 17.3 | 0.961 | > 500 | 0.985 | > 10000 | 0.942 | > 2560 | 0.928 | > 10200
NCI-H716 (large intestine, suspension) | 0.492 | 151 | 0.489 | 5.78 | 0.979 | > 500 | 0.972 | > 10000 | 0.962 | > 2560 | 0.921 | > 10200
NCI-H720 (lung carcinoid, suspension) | 0.934 | > 2560 | 0.713 | 23.5 | 0.981 | > 500 | 0.98 | > 10000 | 0.992 | > 2560 | 0.988 | > 10200
NCI-H727 (lung carcinoid, adherent) | 0.673 | 673 | 0.814 | > 100 | 0.928 | > 500 | 0.908 | > 10000 | 0.923 | > 2560 | 0.943 | > 10200
NCI-H747 (large intestine, adherent) | 0.574 | 266 | 0.848 | > 100 | 0.938 | > 500 | 0.729 | 3290 | 0.892 | > 2560 | 0.917 | > 10200
NCI-H810 (large cell lung carcinoma, adherent) | 0.473 | 136 | 0.823 | 55.9 | 0.987 | > 500 | 0.985 | > 10000 | 0.8 | 1180 | 0.814 | 5290
NCI-H847 (small cell lung carcinoma, adherent) | 0.218 | 29.7 | 0.803 | 38.8 | 0.993 | > 500 | 0.991 | > 10000 | 0.918 | > 2560 | 0.825 | 4640
NCI-H1048 (small cell lung carcinoma, adherent) | 0.313 | 50.9 | 0.498 | 6.18 | 0.928 | > 500 | 0.988 | > 10000 | 0.929 | > 2560 | 0.943 | > 10200
NCI-H1092 (small cell lung carcinoma, suspension) | 0.543 | 210 | 0.963 | > 100 | 0.988 | > 500 | 0.983 | > 10000 | 0.985 | > 2560 | 0.918 | > 10200
NCI-H1155 (large cell lung carcinoma, suspension) | 0.556 | 221 | 0.836 | 50.1 | 0.985 | > 500 | 0.993 | > 10000 | 0.99 | > 2560 | 0.97 | > 10200
NCI-H1304 (small cell lung carcinoma, suspension) | 0.925 | > 2560 | 0.967 | > 100 | 0.988 | > 500 | 0.953 | > 10000 | 0.937 | > 2560 | 0.925 | > 10200
NCI-H1395 (lung adenocarcinoma, adherent) | 0.86 | > 2560 | 0.469 | 5.01 | 0.976 | > 500 | 0.964 | > 10000 | 0.973 | > 2560 | 0.965 | > 10200

Lines with a small IC50 respond at low doses; fits outside the tested doses are given as limits. AUC, from the same fit, is the share of area under the viability curve across the 256-fold dose range; it is 1 without any effect and falls as sensitivity rises. For some assays here: Where the top dose is marked as inferred, it was derived from the fitted curves, not read from the paper. For some assays here: Where an entry number is given, a second screen of the drug exists; the two often differ.
